# In PubChem BioAssay AID1030 (National Center for Advancing Translational Sciences (NCATS), 2008):
# Screen size: about 220,000 compounds; about 16,000 (7.3%) were called active. Inconclusive results, whose numbers are uncertain, are shown with a selection of clear calls. Calls come from the whole dose curve; as a rule, active = well fitted inhibition curve with a large enough effect (not every such curve was filed as active); inconclusive = small, poorly fitted or top-dose-only effect, or another doubt; inactive = no such curve, though single readings can be large or run the other way. No potency is given beside an inconclusive call; the fits are too rough.
# Target: Aldehyde dehydrogenase 1A1 (Homo sapiens) (UniProt P00352)
# UniProt P00352, sequence (P00352 whole entry, looked up): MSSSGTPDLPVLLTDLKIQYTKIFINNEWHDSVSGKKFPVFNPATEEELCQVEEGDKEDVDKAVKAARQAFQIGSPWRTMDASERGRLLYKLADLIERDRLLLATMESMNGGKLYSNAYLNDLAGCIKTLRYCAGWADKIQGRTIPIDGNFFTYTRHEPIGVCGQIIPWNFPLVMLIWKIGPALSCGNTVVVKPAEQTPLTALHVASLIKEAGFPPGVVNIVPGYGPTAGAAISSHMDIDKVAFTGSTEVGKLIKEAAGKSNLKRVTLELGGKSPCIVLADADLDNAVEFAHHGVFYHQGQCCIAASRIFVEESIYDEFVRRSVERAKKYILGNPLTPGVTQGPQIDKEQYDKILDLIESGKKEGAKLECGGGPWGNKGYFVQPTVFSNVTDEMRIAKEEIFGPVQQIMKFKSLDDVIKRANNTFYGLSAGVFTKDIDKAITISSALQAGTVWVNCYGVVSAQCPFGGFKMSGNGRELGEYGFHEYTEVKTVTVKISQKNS
# Assay: qHTS Assay for Inhibitors of Aldehyde Dehydrogenase 1 (ALDH1A1);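 for activity, negative = inhibition: plate controls were no enzyme wells and a reference inhibitor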
# Details: Purified ALDH1A1, NADH fluorescence, propionaldehyde substrate; series mostly up to 75.3 µM; activity, negative = inhibition: at the top concentration
# Potency is the fitted concentration of half-maximal effect; tags give direction and shape of the fitted curve.
SMILES,Potency,"activity, negative = inhibition"
CCC(=O)Nc1cccc(C(=O)/C=C/c2ccc(F)cc2)c1,"inconclusive [inhibitor, single point]",–
NC(=O)COC(=O)CNC(=O)c1sc2ccccc2c1Cl,active: 22.4 µM,–
CCCCCn1cnc2sc(-c3ccccc3)cc2c1=O,"inconclusive [inhibitor, partial curve, poor fit]",–
Cc1sc2nc(SCC(=O)NCc3ccco3)n(CCc3ccccc3)c(=O)c2c1C,"inconclusive [inhibitor, partial curve]",–
Cc1cccc(-n2c(SCCC(=O)O)nnc2-c2cccs2)c1C,"inconclusive [inhibitor, single point]",–
COc1ccc(NC(=O)CSc2nnc(Cc3cccs3)n2-c2ccc(C)cc2)cc1,active: 15.8 µM,–
CCOC(=O)c1[nH]c2ccc(OC)cc2c1NC(=S)N1CCN(c2cccc(C)c2C)CC1,"inconclusive [inhibitor, partial curve]",–
Cc1cc(N/N=C(/CCC(=O)O)C(=O)O)nc2ccccc12,–,inactive: 1.65%
CC(CCc1ccccc1)NC(=S)NC(=O)c1ccco1 (stereo unspecified),"inconclusive [inhibitor, single point]",–
CC(=O)N(c1ccc(C)cc1)S(=O)(=O)c1ccc(Cl)cc1,–,inactive: -4.62%
COc1ccc(-c2c(C)nn3c(-c4ccccc4)cc(C)nc23)cc1,–,inactive: -9.58%
Cc1ccc(S(=O)(=O)NCC(=O)OCC(=O)c2ccc(Br)s2)cc1,"inconclusive [inhibitor, single point]",–
COc1ccc(Oc2ccc(N/C=C3\CCCC3=O)cc2)cc1,"inconclusive [inhibitor, partial curve]",–
CN(C)S(=O)(=O)c1cc(NC(=O)[C@H](Cc2ccccc2)N2C(=O)c3ccccc3C2=O)ccc1Cl,"inconclusive [inhibitor, single point]",–
C=CCOC(=O)C(C(C)=O)C(NC(=O)OC)c1cccc(F)c1 (stereo unspecified),–,inactive: -13.9% [at 13.5 µM]
COc1ccc(N(Cc2cc3cc(OC)ccc3[nH]c2=O)C(=O)c2cccnc2)cc1,"inconclusive [inhibitor, partial curve]",–
CC(=O)c1cc(C(=O)c2ccccc2)sc1Nc1ccccc1,"inconclusive [inhibitor, single point]",–
Cc1nnc(NN)n(N)c1=O,"inconclusive [inhibitor, single point]",–
COc1ccccc1-c1cc(C(=O)NCc2cccs2)no1,"inconclusive [inhibitor, single point]",–
COc1ccc(-c2nc3cnc(N(C)C)nc3n(-c3ccccc3)c2=O)cc1,"inconclusive [inhibitor, single point]",–
CCCn1nnnc1SCC(=O)N1CCCc2ccccc21,"inconclusive [inhibitor, single point]",–
CCOC(=O)C1=C(C)OC(N)=C(C#N)C1c1cc2c(cc1[N+](=O)[O-])OCO2 (stereo unspecified),"inconclusive [inhibitor, single point]",–
CC(C)CCN1C(=O)c2ccc(C(=O)OCn3nnc4ccccc4c3=O)cc2C1=O,"inconclusive [inhibitor, partial curve, poor fit]",–
CCOc1ccc(C2OC34CCCCC3C(C#N)(C#N)C2(C#N)C(=N)O4)cc1OC (stereo unspecified),"inconclusive [inhibitor, partial curve]",–

SMILES,Potency,"activity, negative = inhibition"
CCOc1ccc(C(=O)N2CCCC2C(=O)O)cc1 (stereo unspecified),"inconclusive [inhibitor, partial curve]",–
Cc1ccc(N2CCCn3c2cc(C)c(C#N)c3=O)cc1Cl,"inconclusive [inhibitor, partial curve]",–
Clc1cccc2c1Sc1ccccc1CC2N1CCNCC1 (stereo unspecified),"inconclusive [inhibitor, single point]",–
COCCN1C=C(C(=O)OC)C(c2cc3c(cc2Br)OCO3)C(C(=O)OC)=C1,"inconclusive [inhibitor, full curve]",–
CC(=C/c1ccco1)/C=N/NC(=O)CSc1nnc(SCc2ccc(C)cc2)s1,"inconclusive [inhibitor, single point]",–
CN(C)S(=O)(=O)c1cccc(N2C(=O)CC3(CCCCC3)CC2=O)c1,–,inactive: 4.72%
CC(=O)O[C@@H]1C(CO[Si](C)(C)C(C)(C)C)=C(Br)C(=O)[C@@H]2O[C@]12C,–,inactive: -10.9%
CC1(C)CC(=O)C=C(NCCN2CCN(C(=S)Nc3ccc(F)cc3)CC2)C1,"inconclusive [inhibitor, single point]",–
COc1ccc(CN(C)CC(=O)NC(C)c2ccccc2)c(OC)c1 (stereo unspecified),"inconclusive [inhibitor, single point]",–
CC(C)(C)n1nnnc1C(c1ccncc1)N(Cc1ccccc1)Cc1ccco1 (stereo unspecified),"inconclusive [inhibitor, single point]",–
Cc1ccccc1-c1nc2ccccc2c(=O)n1/N=C/c1ccccc1[N+](=O)[O-],active: 14.1 µM,–
CC1(C)NC(=O)N(CCOCCOc2ccccc2)C1=O,"inconclusive [inhibitor, single point]",–
Cc1cc(=O)oc2ccc(OC(=O)CC(C)C)cc12,"inconclusive [inhibitor, single point]",–
CC(C)[C@H](Nc1ccc(S(=O)(=O)N2CCOCC2)cc1[N+](=O)[O-])C(=O)OCC(=O)N(C(C)C)C(C)C,"inconclusive [inhibitor, partial curve, poor fit]",–
CCOc1ccccc1NC(=O)c1c(NC(=O)CCC(=O)O)sc2c1CCCCC2,"inconclusive [inhibitor, single point]",–
N#Cc1ccc(COC(=O)c2ccccn2)cc1,–,inactive: -0.766%
CCOCCCNC(=O)C(c1ccc(C)cc1)N(Cc1ccc2c(c1)OCO2)C(=O)c1ccccn1 (stereo unspecified),"inconclusive [inhibitor, single point]",–
CC(C)(Oc1ccc(Cl)cc1)C(=O)N/N=C/c1cn[nH]c1-c1ccccc1,active: 8.91 µM,–
COc1cccc(-c2nn3c(-c4ccccn4)nnc3s2)c1,–,inactive: -0.0166%
CCn1cc(C(=O)OCC(=O)N(C)Cc2ccccc2)c(=O)c2ccc(C)nc21,"inconclusive [inhibitor, single point]",–
COc1cc(-n2nnnc2SC)c(OC)cc1Cl,–,inactive: -7.68%
COc1cccc(NC(=O)c2nn(-c3ccc(OC)cc3OC)c(=O)c3ccccc23)c1,–,inactive: 2.87%
Cc1cc(C)c2c(c1)-c1cc(C)nn1C(c1ccc3c(c1)OCO3)N2 (stereo unspecified),"inconclusive [inhibitor, single point]",–
CSCCCNC(=S)N1CCc2ccccc2C1,"inconclusive [inhibitor, single point]",–

SMILES,Potency,"activity, negative = inhibition"
Cc1c(C(=O)Nc2ccc(F)c(F)c2)oc2ccc(S(=O)(=O)N3CCCCC3)cc12,"inconclusive [inhibitor, single point]",–
COc1ccc2nc(C)cc(SCC(NC(C)=O)C(=O)OC(C)C)c2c1 (stereo unspecified),"inconclusive [inhibitor, single point]",–
CC1=CC(=C2C=CC(=O)C=C2)C=C(C)N1C,–,inactive: 0.375%
Cc1c(NC(=O)/C(C#N)=C/C2CC=CCC2)c(=O)n(-c2ccccc2)n1C (stereo unspecified),–,inactive: -7.47%
Cc1nn(Cc2ccccc2)c(Cl)c1C(=O)OCC#N,"inconclusive [inhibitor, partial curve]",–
Cc1oc(-c2cc(F)ccc2F)nc1CN1CCCN(C(=O)c2ccco2)CC1,"inconclusive [inhibitor, single point]",–
COC(=O)c1ccsc1NC(=O)c1cccc(OC)c1,–,inactive: -9.3%
CC(C#N)On1c(SC(C)C#N)nc2ccccc2c1=O (stereo unspecified),active: 15.8 µM,–
C=CCn1c(SCC(=O)NCC)nnc1-c1cc2c(s1)CCC(CC)C2 (stereo unspecified),"inconclusive [inhibitor, single point]",–
CCN(CC)S(=O)(=O)c1ccc(N2CCOCC2)c(NC(=O)c2c3c(nc4ccccc24)CCC3)c1,active: 6.31 µM,–
COc1ccc(Cl)cc1C(=O)NNC(=S)NC(=O)/C=C/c1ccco1,"inconclusive [inhibitor, single point]",–
CC(=O)NS(=O)(=O)c1ccc(N)cc1,inactive,–
CCOC(=O)NCC(C#CCN(CC)CC)N(CC)CC (stereo unspecified),–,inactive: 0.202%
COc1ccc(-n2c(-c3cccc(C)c3[N+](=O)[O-])n[nH]c2=S)cc1,"inconclusive [inhibitor, single point]",–
COC(=O)c1ccc(CN2CCC(CO)(Cc3ccc(OC)cc3)CC2)cc1,–,inactive: -1.03%
Cc1nn2c(-c3ccc(Cl)cc3Cl)nnc2s1,"inconclusive [inhibitor, single point]",–
C=CCN1C(=O)S/C(=C\c2ccc3c(c2)n(C)c(=O)n3C)C1=O,active: 0.282 µM,–
C=CCNC(=O)c1ccc(-c2nc(-c3ccc(Cl)cc3Cl)cs2)cc1,–,inactive: 1.25%
COc1cc2c(cc1OC)CN(C(=S)Nc1ccc(C)cc1C)CC2,–,inactive: 17.6%
CCCCn1ccnc1C(=O)c1cccc(S(=O)(=O)N2CC(C)CC(C)C2)c1 (stereo unspecified),"inconclusive [inhibitor, full curve]",–
O=C(OCc1nc2ccccc2s1)c1cc2ccccc2oc1=O,"inconclusive [inhibitor, single point]",–
Cc1ccccc1CSCC(=O)NC(=O)NCc1ccco1,active: 25.1 µM,–
c1ccc(-c2onc3cc4c(cc23)OCCO4)cc1,"inconclusive [inhibitor, single point]",–
